# According to the supplement of paper PMC8728848:
# Some of the results follow.
# B1: Gal 2 (Homo sapiens), P05162 (protein)
# chain: MTGELEVKNMDMKPGSTLKITGSIADGTDGFVINLGQGTDKLNLHFNPRFSESTIVCNSLDGSNWGQEQREDHLCFSPGSEVKFTVTFESDKFKVKLPDGHELTFPNRLGHSHLSYLSVRGGFNMSSFKLKE
# Columns and labels:
# Assay in all cases: glycan array binding signal (z-score within array); higher = stronger binding
# Details in all cases: glycan notation: IUPAC condensed, linker removed
# [1] = biological target: Neu5Ac(a2-3)GalNAc(b1-4)GlcNAc
# In short: (§1)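 The binding signal is a Z-score computed within each array and averaged over linkers. Arrays of the same protein sequence at different concentrations or buffers were also averaged together. Data originate from 3228 arrays in the Consortium for Functional Glycomics database, kept only where the protein sequence was available.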
# [2] = biological target: Neu5Ac(a2-3)[GalNAc(b1-4)]Gal(b1-4)Glc
# In short: as §1
# [3] = biological target: Neu5Ac(a2-3)[GalNAc(b1-4)]Gal(b1-4)GlcNAc
# In short: as §1
# [4] = biological target: Neu5Ac(a2-3)[GalNAc(b1-4)]Gal(b1-4)GlcNAc(b1-3)GalNAc
# In short: as §1
# [5] = biological target: Neu5Ac(a2-3)[Neu5Ac(a2-6)]GalNAc
# In short: as §1
# Neu5Ac(a2-6)Gal = biological target: Neu5Ac(a2-6)Gal
# In short: as §1
# [6] = biological target: Neu5Ac(a2-6)Gal(b1-3)GlcNAc(b1-3)[Gal(b1-4)GlcNAc(b1-6)]Gal(b1-4)Glc
# In short: as §1
# Neu5Ac(a2-6)Gal(b1-4)Glc = biological target: Neu5Ac(a2-6)Gal(b1-4)Glc
# In short: as §1
# [7] = biological target: Neu5Ac(a2-6)Gal(b1-4)GlcNAc
# In short: as §1
# [8] = biological target: Neu5Ac(a2-6)Gal(b1-4)GlcNAc(b1-2)Man
# In short: as §1
# [9] = biological target: Neu5Ac(a2-6)Gal(b1-4)GlcNAc(b1-2)Man(a1-3)Man(b1-4)GlcNAc(b1-4)GlcNAc
# In short: as §1
# [10] = biological target: Neu5Ac(a2-6)Gal(b1-4)GlcNAc(b1-2)Man(a1-3)[Gal(b1-4)GlcNAc(b1-2)Man(a1-6)]Man(b1-4)GlcNAc(b1-4)GlcNAc
# In short: as §1
# [11] = biological target: Neu5Ac(a2-6)Gal(b1-4)GlcNAc(b1-2)Man(a1-3)[GlcNAc(b1-2)Man(a1-6)]Man(b1-4)GlcNAc(b1-4)GlcNAc
# In short: as §1
# [12] = biological target: Neu5Ac(a2-6)Gal(b1-4)GlcNAc(b1-2)Man(a1-3)[GlcNAc(b1-2)Man(b1-4)GlcNAc(b1-2)Man(a1-6)]Man(b1-4)GlcNAc(b1-4)GlcNAc
# In short: as §1
# [13] = biological target: Neu5Ac(a2-6)Gal(b1-4)GlcNAc(b1-2)Man(a1-3)[GlcNAc(b1-4)][Neu5Ac(a2-6)Gal(b1-4)GlcNAc(b1-2)Man(a1-6)]Man(b1-4)GlcNAc(b1-4)GlcNAc
# In short: as §1
# [14] = biological target: Neu5Ac(a2-6)Gal(b1-4)GlcNAc(b1-2)Man(a1-3)[Man(a1-6)]Man(b1-4)GlcNAc(b1-4)GlcNAc
# In short: as §1
# [15] = biological target: Neu5Ac(a2-6)Gal(b1-4)GlcNAc(b1-2)Man(a1-3)[Neu5Ac(a2-3)Gal(b1-4)GlcNAc(b1-2)Man(a1-6)]Man(b1-4)GlcNAc(b1-4)GlcNAc
# In short: as §1
# [16] = biological target: Neu5Ac(a2-6)Gal(b1-4)GlcNAc(b1-2)Man(a1-3)[Neu5Ac(a2-6)Gal(b1-4)GlcNAc(b1-2)Man(a1-6)]Man(b1-4)GlcNAc(b1-4)GlcNAc
# In short: as §1
# [17] = biological target: Neu5Ac(a2-6)Gal(b1-4)GlcNAc(b1-2)Man(a1-3)[Neu5Ac(a2-6)Gal(b1-4)GlcNAc(b1-2)Man(a1-6)]Man(b1-4)GlcNAc(b1-4)[Fuc(a1-6)]GlcNAc
# In short: as §1
# [18] = biological target: Neu5Ac(a2-6)Gal(b1-4)GlcNAc(b1-2)Man(a1-6)Man(b1-4)GlcNAc(b1-4)GlcNAc
# In short: as §1
# [19] = biological target: Neu5Ac(a2-6)Gal(b1-4)GlcNAc(b1-2)Man(a1-6)[Gal(b1-4)GlcNAc(b1-2)Man(a1-3)]Man(b1-4)GlcNAc(b1-4)GlcNAc
# In short: as §1
# [20] = biological target: Neu5Ac(a2-6)Gal(b1-4)GlcNAc(b1-2)Man(a1-6)[GlcNAc(b1-2)Man(a1-3)]Man(b1-4)GlcNAc(b1-4)GlcNAc
# In short: as §1
# [21] = biological target: Neu5Ac(a2-6)Gal(b1-4)GlcNAc(b1-2)Man(a1-6)[Man(a1-3)]Man(b1-4)GlcNAc(b1-4)GlcNAc
# In short: as §1
binder,measurement,setting,value
B1,glycan array binding signal (z-score),[1],-0.255
same,glycan array binding signal (z-score),[2],-0.272
same,glycan array binding signal (z-score),[3],-0.235
same,glycan array binding signal (z-score),[4],-0.183
same,glycan array binding signal (z-score),[5],-0.272
same,glycan array binding signal (z-score),Neu5Ac(a2-6)Gal,-0.241
same,glycan array binding signal (z-score),[6],-0.245
same,glycan array binding signal (z-score),Neu5Ac(a2-6)Gal(b1-4)Glc,-0.234
same,glycan array binding signal (z-score),[7],-0.254
same,glycan array binding signal (z-score),[8],-0.155
same,glycan array binding signal (z-score),[9],-0.189
same,glycan array binding signal (z-score),[10],-0.145
same,glycan array binding signal (z-score),[11],-0.22
same,glycan array binding signal (z-score),[12],-0.154
same,glycan array binding signal (z-score),[13],-0.169
same,glycan array binding signal (z-score),[14],-0.18
same,glycan array binding signal (z-score),[15],-0.229
same,glycan array binding signal (z-score),[16],-0.18
same,glycan array binding signal (z-score),[17],-0.196
same,glycan array binding signal (z-score),[18],-0.065
same,glycan array binding signal (z-score),[19],-0.209
same,glycan array binding signal (z-score),[20],-0.192
same,glycan array binding signal (z-score),[21],-0.12
